Measured values taken from publication PMC4336329 (PLoS ONE, 2015).
Screen size: about 310,000 compounds; about 2,200 (0.71%) showed an effect of 50% or more. The effect is printed as a negative number. The list shows a part of the results.

These molecules were tested against human ether-à-go-go-related gene (hERG) potassium channel (human, UniProt Q12809) (assay: primary screen, population patch clamp on CHO cells stably expressing hERG).
Sequence of human ether-à-go-go-related gene (hERG) potassium channel (Q12809 whole entry, looked up): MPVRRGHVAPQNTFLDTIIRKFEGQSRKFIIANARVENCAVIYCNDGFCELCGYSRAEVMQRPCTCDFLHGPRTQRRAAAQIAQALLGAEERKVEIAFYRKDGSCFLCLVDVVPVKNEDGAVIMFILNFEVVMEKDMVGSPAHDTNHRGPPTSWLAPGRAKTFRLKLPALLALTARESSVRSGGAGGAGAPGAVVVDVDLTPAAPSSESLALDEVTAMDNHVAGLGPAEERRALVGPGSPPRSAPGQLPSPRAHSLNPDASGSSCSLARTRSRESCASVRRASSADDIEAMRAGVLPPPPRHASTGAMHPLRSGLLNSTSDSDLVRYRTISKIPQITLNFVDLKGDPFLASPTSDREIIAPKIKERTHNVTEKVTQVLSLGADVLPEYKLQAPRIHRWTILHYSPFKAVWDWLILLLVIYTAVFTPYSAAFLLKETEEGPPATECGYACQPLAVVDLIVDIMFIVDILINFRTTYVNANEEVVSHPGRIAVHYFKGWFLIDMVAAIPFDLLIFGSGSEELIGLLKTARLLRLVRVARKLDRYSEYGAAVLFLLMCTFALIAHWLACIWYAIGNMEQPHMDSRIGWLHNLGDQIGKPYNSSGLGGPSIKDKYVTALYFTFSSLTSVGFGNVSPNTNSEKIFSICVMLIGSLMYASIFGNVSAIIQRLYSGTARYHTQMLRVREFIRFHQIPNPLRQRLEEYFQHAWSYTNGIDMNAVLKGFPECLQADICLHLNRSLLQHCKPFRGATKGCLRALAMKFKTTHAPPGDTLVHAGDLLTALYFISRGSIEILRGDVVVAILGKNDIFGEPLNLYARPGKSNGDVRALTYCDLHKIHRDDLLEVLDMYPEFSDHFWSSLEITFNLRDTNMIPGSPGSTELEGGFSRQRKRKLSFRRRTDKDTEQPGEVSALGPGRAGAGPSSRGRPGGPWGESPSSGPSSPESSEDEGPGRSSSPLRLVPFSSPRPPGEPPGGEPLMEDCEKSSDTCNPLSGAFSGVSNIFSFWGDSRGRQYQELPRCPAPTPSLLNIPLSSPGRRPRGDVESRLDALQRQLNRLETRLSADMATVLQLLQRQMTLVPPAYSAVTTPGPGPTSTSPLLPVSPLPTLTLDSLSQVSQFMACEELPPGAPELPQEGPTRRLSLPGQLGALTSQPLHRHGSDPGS

| Compound | hERG current change (%, negative = inhibition) at 1uM [%] |
| --- | --- |
| O=C1C(Cl)=C(N2CCOCC2)C(=O)N1c1ccccc1F | 15.7 |
| O=[N+]([O-])c1ccc(Cl)c(/C=N/n2c(COc3ccccc3)n[nH]c2=S)c1 | 8.05 |
| C=CCOc1c(CNc2ncn[nH]2)cccc1OCC | -2.26 |
| O=C(CCc1ccccc1)c1c(O)cc(O)cc1O | 11.5 |
| Br.CC1=C(c2ccccc2)SC2=NCCN21 | 6.79 |
| Cc1nn(C)c2ncc(C(=O)c3ccccc3O)cc12 | 13.6 |
| O=C(NCC1CCCO1)C1CCCCN1S(=O)(=O)c1ccc(F)cc1 (stereo not shown) | 5.84 |
| Cc1ccnc(SCC(=O)c2ccc([N+](=O)[O-])cc2)n1 | -3.06 |
| CCc1nc(N2CCN(S(=O)(=O)c3ccc(Br)cc3)CC2)c2c(C)c(C)sc2n1 | 1.18 |
| Cc1cccc(-n2c(-c3ccco3)nc3nc4ccccc4nc32)c1 | 4.84 |
| CCOc1ccc(S(=O)(=O)NCCC(=O)N2CC(C)OC(C)C2)cc1 (stereo not shown) | 13.5 |
| O=C(c1cc2ccccc2oc1=O)N(c1ccccc1)C1C=CS(=O)(=O)C1 (stereo not shown) | 4.42 |
| CCc1nnc(NS(=O)(=O)c2ccc(NC(=O)c3ccco3)cc2)s1 | 6.9 |
| CC12CCC(C(=O)O)(c3nc4cc([N+](=O)[O-])ccc4nc31)C2(C)C (stereo not shown) | 4.11 |
| CCN(C(=O)c1cccc(F)c1)c1ccccc1C | 11 |
| CCOC(=O)C1CCN(c2c(NCc3ccc(C(=O)NC(C)CC)cc3)c(=O)c2=O)CC1 (stereo not shown) | -0.0771 |
| O=C(O)CCC(=O)NCCn1c(-c2ccccc2)csc1=Nc1ccccc1 | 14 |
| Cc1cc(C)n2nc(SCc3cc(=O)oc4cc(C)c(C)cc34)nc2n1 | 15.1 |
| O=C(Nc1ccccc1F)c1ccc([N+](=O)[O-])s1 | 6.9 |
| CC(C)OP(=O)(O)NC(=O)c1ccccc1 | -0.176 |
| CC(=O)Nc1cccn(Cc2c(Cl)cccc2Cl)c1=O | 14.9 |
| Cc1ccc(S(=O)(=O)NCCC(=O)NNC(=O)C2COc3ccccc3O2)cc1 (stereo not shown) | 2.12 |

| Compound | hERG current change (%, negative = inhibition) at 1uM [%] |
| --- | --- |
| C#CCN1c2ccccc2Sc2cccnc21 | 15.7 |
| O=C(O)CCNS(=O)(=O)c1ccc(Oc2ccccc2Cl)cc1 | -3.62 |
| COC(=O)C1SCC2C(=O)N(Cc3ccc(F)cc3)CC(=O)N21 (stereo not shown) | 9.76 |
| CCOc1ccc(C(=O)N2CCCC2)cc1OC | -1.68 |
| Cc1ccc(S(=O)(=O)Nc2cccnc2)cc1 | 24.3 |
| O=C(COC(=O)Cc1ccc(F)cc1)Nc1cc(S(=O)(=O)N2CCOCC2)ccc1N1CCCC1 | -0.409 |
| Cc1cc(C)n(-c2ccc(C(=O)N3CCc4ccccc43)cc2)n1 | 0.719 |
| CCOc1ccc(C(=O)Nc2ccc(C(F)(F)F)n(C)c2=O)cc1 | 2.14 |
| Cc1ccc(NC(=O)CCCCCNS(=O)(=O)c2ccc(C)cc2)cc1 | 11.2 |
| CCOC(=O)CN(C(=O)c1ccccc1[N+](=O)[O-])C(C)(C)C | 12.1 |
| CC(OC(=O)c1cccs1)C(=O)NC1CCCCC1C (stereo not shown) | -66.1 |
| Cn1c(SCC(=O)NC2CCCC2)nnc1-c1ccc(S(=O)(=O)N2CCOCC2)cc1 | -2.36 |
| COc1ccc(CCNC(=O)C2CCN(S(=O)(=O)c3ccc(F)cc3)CC2)cc1 | 0.603 |
| COCCOC(=O)C1=C(C)N=C2SCCC(=O)N2C1c1cccc(Br)c1 (stereo not shown) | 3.78 |
| COc1ccc(OCC(Cn2cnc3ccccc32)OC(C)=O)cc1.Cl (stereo not shown) | 9.29 |
| COc1ccc(OC)c(-c2csc(NC(=O)C3COc4ccccc4O3)n2)c1 (stereo not shown) | 16.5 |
| O=C(CN1C(=O)CCC1=O)Nc1nc(-c2ccc(Oc3ccccc3)cc2)cs1 | 4.54 |
| Cc1cc[n+](-c2[nH]c(=O)sc2/C=N/NC([S-])=Nc2ccccc2)cc1C | 12.2 |
| Cc1ccc(CSCC(=O)Nc2ccccc2)cc1 | 10.6 |
| Cc1c(Br)cnn1C(C)C(=O)N1CCN(c2ccccc2F)CC1 (stereo not shown) | -3.94 |
| CN(C)CCN(CC1CCCN(Cc2ccccc2F)C1)C(=O)c1ccc(F)cc1 (stereo not shown) | 10.7 |
| CCC(C)(C(=O)NC1CCCCC1)N(C(=O)c1ccccn1)c1ccccc1 (stereo not shown) | -19.4 |

| Compound | hERG current change (%, negative = inhibition) at 1uM [%] |
| --- | --- |
| N#C/C(=N/Nc1ccccc1F)C(=N)N1CCOCC1 | 13.6 |
| O=C(COC(=O)C1CCCCC1C(=O)N1CCc2ccccc21)NCc1ccco1 (stereo not shown) | 2.36 |
| COC(=O)[C@@H](NC(=O)N(C1CCCCC1)C1CCCCC1)C(C)C | 9.46 |
| COc1cccc(C(=O)NNC2OC(CO)C(O)C2O)c1 (stereo not shown) | 17.8 |
| Cc1c(C)n(CCCN(C)C)c2ncnc(NCc3ccccc3)c12 | 13.3 |
| Cn1c(SCC(=O)N2CCN(c3cccc(Cl)c3)CC2)nnc1-c1ccncc1 | -13.3 |
| Cc1cc(SCC(=O)c2cccs2)nc2c(C)cccc12 | -8.13 |
| COc1ccc(C(C)=O)cc1CN1C(=O)C(C)N(c2ccc(C)cc2)C1=O (stereo not shown) | -16.2 |
| Cc1cc(C)nc(N2CCCC(C(=O)Nc3cccc(Cl)c3)C2)n1 (stereo not shown) | 12.8 |
| O=C(COc1cccnc1[N+](=O)[O-])N1N=C(c2ccc(Cl)cc2)CC1c1ccco1 (stereo not shown) | 18.6 |
| O=C(NC(Cc1ccccc1)C(=O)O)/C(=C\c1cccc([N+](=O)[O-])c1)NC(=O)c1ccco1 (stereo not shown) | 30.3 |
| NS(=O)(=O)c1ccc(NC(=O)COC(=O)C2(c3ccccc3F)CCCC2)cc1 | -2.4 |
| O=C(c1ccc(F)cc1)N1CCN(c2cc(N3CCCCC3)c(F)cc2[N+](=O)[O-])CC1 | 2.91 |
| CN=C(Nc1cc(C)nn1CCC#N)c1ccc(F)cc1 | 16.4 |
| Brc1cc(/C=N/n2cnnc2)oc1Br | 9.42 |
| O=C(Nc1ncccn1)c1ccc([N+](=O)[O-])cc1[N+](=O)[O-] | 6.47 |
| COc1ccc(C(=O)NNC(=O)C(NC(=O)c2ccccc2NC(=O)c2ccco2)C(C)C)cc1 (stereo not shown) | -8.18 |
| CC(C)CCNC(=O)CN(CCN1CCOCC1)C(=O)Cn1nnc(-c2ccc(F)cc2)n1 | 0.0812 |
| CCCN1C(=O)C2(C(C(=O)c3ccc(C)o3)=C(O)C(=O)N2CCCOC)c2ccccc21 (stereo not shown) | 7.99 |
| CCC1(CC)Cc2ccccc2-c2nc3ccccc3c(=O)n21 | 24.2 |
| CN(CC(=O)Nn1cnnc1)S(=O)(=O)c1ccccc1 | 13.3 |
| CCOc1ccc(OCC)c(NC(=O)C2CCN(S(=O)(=O)c3cccnc3)CC2)c1 | -48.6 |

| Compound | hERG current change (%, negative = inhibition) at 1uM [%] |
| --- | --- |
| CCCC(=O)C1=C(O)C(C(=O)OC)C(C)(C)CC1=Nc1cccc([N+](=O)[O-])c1 (stereo not shown) | 4.96 |
| COc1ccc(NC(=O)C2CCN(S(=O)(=O)c3cccc4cccnc34)CC2)cc1OC | 14.5 |
| Cc1c(CCC(=O)O)c(=O)oc2c(C)c(OCc3cc4c(cc3Cl)OCO4)ccc12 | 14.7 |
| Cc1ccc(/C=N/NC(=O)c2ccoc2C)o1 | 13 |
| O=C(c1ccc2c(=O)n(CCc3ccccc3)c(=O)[nH]c2c1)N1CCN(c2ccccc2)CC1 | 7.33 |
| Cc1ccc(C(=O)N2NC(c3ccc(F)cc3)C3C(=O)N(c4ccc(C)c(C)c4)C(=O)C32)cc1 (stereo not shown) | 10.6 |
| S=c1[nH]nc(-c2ccc(Cl)cc2)n1CC1CCCO1 (stereo not shown) | 11.7 |
| CCCSC1=N/C(=C/c2ccsc2)C(=O)N1c1ccccc1 | 17.3 |
| O=C(Cn1nc(-c2ccco2)ccc1=O)Nc1ccc(Cl)c(Cl)c1 | 16.9 |
| CCc1c(C)nc2c(-c3ccccc3)c(C)[nH]n2c1=O | 17.1 |
| CCCCn1c(-c2csc3c2CCCC3)n[nH]c1=S | 7.71 |
| NC(=O)COC(=O)CSc1ccc2ccccc2c1 | 10.6 |
| COc1cc(OC)cc(C(=O)NCCCCCCNC(=O)c2cc(OC)cc(OC)c2)c1 | 5.74 |
| O=C(CN1C(=O)C2CC=CCC2C1=O)Nc1ccc(S(=O)(=O)Nc2ncccn2)cc1 (stereo not shown) | 4.78 |
| CC(=O)Nc1cccc(C(=O)NNC(=O)c2n[nH]c(=O)c3ccccc23)c1 | -5.98 |
| CCC(C)(C)n1nnnc1C(C(C)C)N1CCN(C(=O)c2ccco2)CC1 (stereo not shown) | 1.04 |
| Clc1ccc(C(c2nnnn2CCc2ccccc2)N2CCSCC2)cc1 (stereo not shown) | 8.65 |
| CCN(CC(=O)Nc1ccc(N2CCOCC2)cc1)C(=O)c1ccc(C(F)(F)F)cc1 | 1.27 |
| Cc1ccccc1NC(=O)CCS(=O)(=O)c1ccc(Br)s1 | 17.5 |
| O=C1NCCCCC1NC1CC(=O)N(c2ccccc2)C1=O (stereo not shown) | 9.27 |
| Cc1ccc(S(=O)(=O)CC(=O)NCc2ccc(Cl)cc2)cc1 | 2.76 |
| COc1ccccc1N1CCN(C(=O)CSc2nnc(NC(=O)C(C)C)s2)CC1 | 17.7 |
